# Data reported in paper PMC4336329 (PLoS ONE, 2015).
# Out of some 310,000 compounds screened, about 14,000 (4.5%) showed an effect of 50% or more. Effects have a minus sign here. This is one part of the list.
# Biological target: human ether-à-go-go-related gene (hERG) potassium channel (human, UniProt Q12809)
# Test: primary screen, population patch clamp on CHO cells stably expressing hERG
# Description: Briefly, Chinese hamster ovary (CHO) cells stably expressing the hERG channel were dislodged from tissue culture flasks and dispensed into PPC plates. […] During the recording, background leak currents were estimated by a 100 ms step to -80 mV from an initial holding potential of -70 mV and subtracted from the subsequent current measurement. The campaign was conducted in two phases using slight differences in recording protocol. In the first phase, the initial voltage pulse used a 100 ms step to -30 mV from a holding potential of -70 mV, a 2 s conditioning step to +25 mV, and a 2 s test step to -30 mV. During the second phase of the screen, the potential during the conditioning step was raised to +45 mV. In both phases of the campaign, a secondary voltage pulse was applied using the same parameters as the second phase initial pulse. The initial and secondary pulses were applied in the absence of compound, and upon application of 1 μM and 10 μM test concentrations. […]
# 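Further: peak tail current of the secondary pulse compared with the same well before compound.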
# Chain of human ether-à-go-go-related gene (hERG) potassium channel (Q12809 whole entry, looked up): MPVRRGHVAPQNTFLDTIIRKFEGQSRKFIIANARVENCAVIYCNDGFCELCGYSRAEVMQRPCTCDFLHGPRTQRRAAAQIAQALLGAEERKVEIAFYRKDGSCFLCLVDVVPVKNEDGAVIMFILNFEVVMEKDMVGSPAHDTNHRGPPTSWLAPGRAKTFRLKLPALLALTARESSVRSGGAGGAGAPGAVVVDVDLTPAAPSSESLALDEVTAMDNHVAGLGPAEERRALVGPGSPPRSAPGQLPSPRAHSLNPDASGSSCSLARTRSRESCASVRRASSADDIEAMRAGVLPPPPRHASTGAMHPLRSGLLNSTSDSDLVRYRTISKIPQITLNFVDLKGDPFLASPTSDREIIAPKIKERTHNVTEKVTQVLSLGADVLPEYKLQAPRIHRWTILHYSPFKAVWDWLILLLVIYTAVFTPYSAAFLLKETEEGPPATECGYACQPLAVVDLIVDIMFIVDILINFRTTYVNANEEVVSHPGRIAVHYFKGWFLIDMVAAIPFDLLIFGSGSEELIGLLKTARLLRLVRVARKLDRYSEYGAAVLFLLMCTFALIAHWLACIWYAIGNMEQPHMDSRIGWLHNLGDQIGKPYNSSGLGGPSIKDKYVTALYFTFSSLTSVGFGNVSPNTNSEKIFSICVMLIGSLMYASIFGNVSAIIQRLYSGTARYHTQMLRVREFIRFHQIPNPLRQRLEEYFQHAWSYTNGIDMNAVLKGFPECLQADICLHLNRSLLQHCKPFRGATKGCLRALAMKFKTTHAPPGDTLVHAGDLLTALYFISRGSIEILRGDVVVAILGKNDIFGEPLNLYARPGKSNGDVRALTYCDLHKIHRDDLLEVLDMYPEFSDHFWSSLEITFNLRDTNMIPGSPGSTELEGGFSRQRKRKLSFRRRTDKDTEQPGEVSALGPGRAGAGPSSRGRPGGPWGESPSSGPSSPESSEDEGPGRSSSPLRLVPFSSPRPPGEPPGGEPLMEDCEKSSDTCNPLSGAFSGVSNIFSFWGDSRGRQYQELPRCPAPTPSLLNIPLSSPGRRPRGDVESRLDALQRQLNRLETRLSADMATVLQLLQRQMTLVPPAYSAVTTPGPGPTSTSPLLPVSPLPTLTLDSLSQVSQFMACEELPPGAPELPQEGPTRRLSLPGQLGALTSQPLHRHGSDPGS
row,Compound,"hERG current change (%, negative = inhibition) at 10uM [%]"
1,CCOc1ccc(Nc2nc(Cc3nnc(SCC(=O)O)o3)cs2)cc1,-1.32
2,O=C(NCCN1CCOCC1)C1(C(F)(F)F)C/C(=C\Cc2ccccc2)CCCO1 (centres unmarked),7.34
3,Cc1ccc(C(=O)NNC(=O)CCOc2cccc(C)c2)cc1,1.74
4,CCSC1=C(C#N)C(c2ccccc2C)CC(=O)N1 (centres unmarked),4.05
5,Cc1c(NC(=O)C(C#N)=C2CCCCC2)c(=O)n(-c2ccccc2)n1C,7.58
6,CCOc1ccc(NC(=O)CN(C)C(=O)CSCc2c(C)noc2C)cc1OCC,-4.75
7,C=CCn1c(C)nnc1SCC(=O)c1[nH]c(C)c(C(C)=O)c1C,14.3
8,Cc1ccccc1NC(=O)C1C2CCCC1C2c1ccccc1 (centres unmarked),-4.56
9,CNC(=O)CSc1nnc(-c2ccco2)n1-c1ccccc1OC,-3.69
10,CC1(C)Cc2c(C#N)c(N)n(-c3ccccc3)c(=O)c2CO1,5.99
11,CCOC(=O)c1nnn(CC(=O)N2N=C(c3cc(C)ccc3C)CC2c2ccc(OC)cc2)c1C(=O)OCC (centres unmarked),-7.65
12,Fc1cc2nc(-c3ccncc3)[nH]c2cc1F,-6.12
13,Cc1cccc(-n2cnc(C(=O)O)c2)n1,11.1
14,Oc1ccc(C23CC4CC(CC(C4)C2)C3)cc1O,18.1
15,COc1c2ccoc2nc2c(OC)c(OC[C@@H](O)C(C)(C)O)ccc12,12.4
16,CCOc1ccc2nc(Cl)sc2c1,19.9
17,Cc1ccc(NC(=O)CCn2nc(C)cc2C)c(C)c1,2.6
18,CNC(=S)N/N=C/c1ccc(C(C)C)cc1,6.93
19,COc1cc(Cl)c(C)cc1NC(=O)CSCC#N,-9.08
20,O=C(CSc1nc2ccccc2nc1N1CCOCC1)Nc1ccccc1F,-4.19
21,c1ccc(CN2CCN(Cc3cn4cccnc4n3)CC2)cc1,3.97
22,CCOC(=O)N1CCN(C(=S)Nc2ccccc2C(C)C)CC1,6.71
23,CCO[C@H]1OC(C(=O)N2CCCCCCC2)=C[C@@H](c2coc3ccccc3c2=O)[C@@H]1CCCO,-17.7

row,Compound,"hERG current change (%, negative = inhibition) at 10uM [%]"
1,COc1ccc(NC(=O)c2cc([N+](=O)[O-])ccc2N2CCN(C)CC2)cc1,-43.4
2,CC(Oc1ccc(Cl)cc1Cl)C(=O)NNC(=O)[C@@H]1CCCC[C@@H]1C(=O)O (some centres unmarked),0.365
3,O=C(CSc1nnnn1C1CCCCC1)Nc1ccccc1F,7.22
4,NS(=O)(=O)c1ccc(NC(=O)CSc2nc3c(c(=O)[nH]2)CCCC3)cc1,3.76
5,CNc1ccccc1C(=O)OC(C)C(=O)Nc1ccc(Cl)cn1 (centres unmarked),-1.94
6,C=CCn1c(NCc2ccc(OC)cc2O)nc2ccccc21,-23.1
7,Fc1ccc(COc2ccccc2CNc2nn[nH]n2)cc1,15
8,CCc1ccc(N(CC(=O)NCCc2ccccc2)C(=O)CCC(=O)Nc2ccccn2)cc1,1.94
9,O=S(=O)(c1ccccc1C(F)(F)F)N1CCC(n2cnc3ccccc32)CC1,-60.5
10,CCOC(=O)c1ccc(N2CCN(c3ccccc3F)CC2)c(NC(=O)Nc2ccccc2)c1,9.31
11,CCOc1cc2nc(-c3ccc(OC)c(OC)c3)nc(N3CCOCC3)c2cc1OC,-15.5
12,COc1ccc(CNC(=O)CSc2nccn(-c3ccc(F)c(F)c3)c2=O)cc1,8.61
13,O=C(CCn1c2c(c3ccccc31)CCCC2)NNC(=O)c1ccc([N+](=O)[O-])cc1,-11.9
14,CCOc1ccccc1NC(=O)C1CCN(C(=O)Cc2ccccc2)CC1,-1.35
15,CCc1cc2c(=O)[nH]c(Cc3ccc(Cl)cc3)nc2s1,3.97
16,CC1CCc2nn(CC(=O)N3CCCCCC3)cc2C1 (centres unmarked),-8.53
17,C/C(CC(=O)NC12CC3CC(CC(C3)C1)C2)=N\NC(=O)c1ccc(F)cc1,-12.9
18,CC1(C)CC(=O)c2cn3ncnc3nc2C1,-2.31
19,COc1ccc(C(=O)OCC(=O)NCc2ccco2)cc1S(=O)(=O)N1CCN(c2cccc(Cl)c2)CC1,-7.83
20,O=C1NC2(CCCC2)C(=O)N1CC(=O)N(Cc1ccccc1)c1ccccc1,-4.37
21,COc1ccc(-c2[nH]ncc2CN2CCCN(C(=O)c3ccco3)CC2)cc1F,-55.2
22,Cc1csc(NC(=O)CCNC(=O)c2ccc([N+](=O)[O-])cc2)n1,-25.1
23,COc1cc(/C=C/C(=O)OCC(=O)NC(=O)NC2CCCCC2)ccc1OC(F)F,5.67

row,Compound,"hERG current change (%, negative = inhibition) at 10uM [%]"
1,O=[N+]([O-])c1ccccc1Nc1nc(-c2cccnc2)cs1,5.15
2,O=C(NCCCN1CCCCCC1)c1ccc(N2CCCC2=O)cc1,16.4
3,CCc1cccc(NC(=O)Cn2cc3c(n2)CCCC3)c1,1.1
4,O=C(CCCOc1ccc(Cl)cc1Cl)NCCc1nnc2ccccn12,-38.8
5,COC(=O)[C@@H]1C[C@H]2CC[C@H](O)C[C@H]2N1Cc1ccccc1OC(=O)c1cccs1,-8.84
6,Cc1[nH]c2ccccc2c1CCCO,10.7
7,CN(C)S(=O)(=O)c1cccc(NC(=S)NNC(=O)c2cc3ccccc3cc2O)c1,12.4
8,CCOc1ccccc1N(CC(=O)Nc1ccccc1C(=O)N1CCOCC1)S(C)(=O)=O,9.3
9,Fc1ccc(NC(=S)N2CCCc3ccccc32)cc1,-0.393
10,O=C(CSc1nnc(-c2ccncc2)n1Cc1ccccc1)Nc1nccs1,-12.5
11,O=C1Nc2ccccc2C12Nc1ccccc1-c1nc3ccccc3n12 (centres unmarked),-0.999
12,CC(C)CNS(=O)(=O)c1ccc(S(=O)(=O)N2CCCN(Cc3ccccc3)C2)cc1,2.46
13,Cc1cc(NC(=O)CN2CCCCC2C)nc2c1c(=O)oc1ccccc12 (centres unmarked),14.5
14,CN(c1ccc(OCC(=O)NCCc2ccccc2)cc1)S(=O)(=O)c1ccc(Cl)cc1,15.2
15,CCOc1cccc(/C=N/NC(=S)Nc2ccccc2[N+](=O)[O-])c1O,18.7
16,Cc1ccc(C)c(C(=O)O/N=C(\N)c2ccc(Br)cc2)c1,-2.61
17,COc1cccc(NC(=O)c2cnc(SC)nc2C)c1,-11.2
18,CCN1CCN(C(=S)c2ccc(OCC(=O)N3CCOCC3)cc2)CC1,17.5
19,Cc1cccc(CC(C)NC(=O)CCc2nnc(CCCCc3ccccc3)o2)n1 (centres unmarked),-6.97
20,CC(C)CNC(=O)C1CCN(Cc2ccc(OCc3ccccc3)cc2)CC1.O=C(O)C(=O)O,-77.1
21,Clc1ccc(N/N=C/c2ccncc2)cc1Cl,30.5
22,O=C(NC(=S)NCc1ccccc1)c1ccc2c(c1)OCO2,-8.81
23,CCOC(=O)N1CCC(NC(=O)CCc2ccccc2)CC1,2.99

row,Compound,"hERG current change (%, negative = inhibition) at 10uM [%]"
1,Cc1cccc(NC(=O)N2CCCC2C(=O)NCc2cccs2)c1 (centres unmarked),-3.65
2,COc1cccc(OC)c1C(=O)Nc1cccc(-c2nc3ccccc3[nH]2)c1,2.01
3,CC1CCOC2(O1)C(=O)Nc1ccccc12 (centres unmarked),16.1
4,Cn1c(=O)c(C(=O)CN2CCc3ccccc32)c(N)n(Cc2ccccc2)c1=O,-15.7
5,Cc1cc([N+](=O)[O-])ccc1-c1ccc(/C=N/NC(=O)c2ccc(Br)o2)o1,-8.16
6,CCOc1cccc2cc(C(=O)NCc3ccc(OC)cc3)c(=N)oc12,8.01
7,CCOC(=O)[C@@H]1[C@H]2COc3cc(OC)ccc3[C@@H]2N2C(=O)N(c3ccc(F)cc3)C(=O)[C@]12C,0.293
8,Cc1cc(NC(=O)COC(=O)COc2cccc3c2OC(C)(C)C3)no1,14
9,COc1ccc(CC(=O)Nc2nnc(C(C)C)s2)cc1OC,0.877
10,CCN1CC(CN(C)Cc2nc(-c3ccc(OC)c4ccccc34)oc2C)CC1=O (centres unmarked),-37.2
11,CCCCOC(=O)C1=C(C)Nc2ncnn2C1c1ccc(OC)c(OC)c1 (centres unmarked),-21.5
12,COc1ccc2cc(/C=N/O)c(Cl)nc2c1,13.2
13,O=C1NC(=O)N(c2ccccc2)C(=O)/C1=C/c1ccoc1,16.7
14,Cc1nn(-c2ccccc2)c(C)c1C(=O)OCC(=O)N1c2ccccc2NC(=O)C1(C)C,-8.43
15,CN1CCN(c2nc3c(c(=O)n(C)c(=O)n3C)n2Cc2cccc3ccccc23)CC1,-5.1
16,O=C(CCC(=O)N(CC(=O)NC1CCCCC1)c1ccccc1F)Nc1nccs1,9.16
17,O=C1NC(Cc2c[nH]c3ccccc23)C(=O)N1c1ccc(F)cc1 (centres unmarked),12.4
18,COc1cccc(N(C(=O)c2nc3nccc(C)n3n2)c2nc3ccccc3s2)c1,-32
19,O=S(=O)(Nn1cnnc1)c1ccccc1Cl,16.1
20,Cc1ccc(-n2c(-c3cc(-c4ccco4)[nH]n3)n[nH]c2=S)c(Br)c1,10.3
